Among all 310,000 compounds or so, about 2,200 (0.71%) showed an effect of 50% or more. The effect is printed as a negative number. The list shows a part of the results.

Sequence of human ether-à-go-go-related gene (hERG) potassium channel (Q12809 whole entry, looked up): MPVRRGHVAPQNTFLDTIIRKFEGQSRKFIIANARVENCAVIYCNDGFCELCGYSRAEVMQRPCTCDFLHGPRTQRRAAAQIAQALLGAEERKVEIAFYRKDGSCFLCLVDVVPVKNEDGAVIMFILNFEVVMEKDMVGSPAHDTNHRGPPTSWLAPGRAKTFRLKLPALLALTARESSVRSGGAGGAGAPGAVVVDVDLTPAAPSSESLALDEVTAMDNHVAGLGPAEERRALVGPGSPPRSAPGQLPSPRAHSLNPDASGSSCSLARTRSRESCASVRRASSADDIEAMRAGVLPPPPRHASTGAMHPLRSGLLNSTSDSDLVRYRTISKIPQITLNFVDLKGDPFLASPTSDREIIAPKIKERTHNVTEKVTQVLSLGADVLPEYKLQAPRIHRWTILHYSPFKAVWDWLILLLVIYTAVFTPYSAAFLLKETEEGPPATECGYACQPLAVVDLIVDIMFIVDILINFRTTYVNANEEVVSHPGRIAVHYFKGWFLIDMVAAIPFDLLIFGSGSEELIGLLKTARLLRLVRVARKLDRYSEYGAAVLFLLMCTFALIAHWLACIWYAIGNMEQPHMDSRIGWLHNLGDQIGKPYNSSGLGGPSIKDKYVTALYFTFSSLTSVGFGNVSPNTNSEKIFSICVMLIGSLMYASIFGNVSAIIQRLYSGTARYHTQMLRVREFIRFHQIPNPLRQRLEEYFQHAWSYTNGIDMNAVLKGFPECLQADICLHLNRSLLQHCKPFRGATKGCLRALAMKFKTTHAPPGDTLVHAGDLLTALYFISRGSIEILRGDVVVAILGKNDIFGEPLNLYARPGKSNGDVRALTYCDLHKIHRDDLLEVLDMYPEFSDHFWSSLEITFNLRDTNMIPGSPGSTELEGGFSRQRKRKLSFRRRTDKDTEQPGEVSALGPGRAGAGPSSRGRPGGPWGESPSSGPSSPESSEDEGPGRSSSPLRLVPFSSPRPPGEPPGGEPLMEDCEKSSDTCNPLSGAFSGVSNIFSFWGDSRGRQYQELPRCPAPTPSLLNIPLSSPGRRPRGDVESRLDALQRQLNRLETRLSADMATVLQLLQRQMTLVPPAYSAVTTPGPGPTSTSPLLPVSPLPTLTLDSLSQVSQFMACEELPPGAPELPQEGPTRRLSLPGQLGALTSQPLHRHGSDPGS

This assay concerns the target human ether-à-go-go-related gene (hERG) potassium channel (human, UniProt Q12809). Put plainly: primary screen, population patch clamp on CHO cells stably expressing hERG.
Regarding `CCC(=O)N1CCc2cc(S(=O)(=O)NCCC(=O)NCc3ccccc3Cl)ccc21`, the “hERG current change (%, negative = inhibition) at 1uM” value is 6.65%.

`Cc1ccc(C(=O)NCC(=O)OCC(=O)Nc2ncc(C(F)(F)F)cc2Cl)cc1`: the “hERG current change (%, negative = inhibition) at 1uM” value is on record as 8.47%.

Turning to `Cc1ccccc1S(=O)(=O)Cc1ccc(C(=O)N2CC(C)CC(C)C2)o1` (stereo not shown), the “hERG current change (%, negative = inhibition) at 1uM” value is 1.98%.

Turning to `C[C@H](NC(=O)c1nc[nH]c1C(=O)N1CCc2ccccc2C1)C(=O)OCc1ccccc1`, the “hERG current change (%, negative = inhibition) at 1uM” value is 12.5%.

Take `O=C(Cc1cccc(C(F)(F)F)c1)NCc1cccnc1`: the “hERG current change (%, negative = inhibition) at 1uM” value came to 8.35%.

Regarding `COc1cccc(CN(C)CC(O)COc2cc(Cl)ccc2Cl)c1.O=C(O)C(=O)O` (stereo not shown), the “hERG current change (%, negative = inhibition) at 1uM” value is given as 6.33%.

Turning to `Cc1[nH]c(SCC(=O)Nc2cc(S(C)(=O)=O)ccc2Cl)nc1Cc1ccccc1`, the “hERG current change (%, negative = inhibition) at 1uM” value is 5.82%.

For `C=CCNCCOCCOc1ccc(C)cc1[N+](=O)[O-]`, the “hERG current change (%, negative = inhibition) at 1uM” value came to 9.08%.

For `Cc1ccc(SCC(=O)NN=C2CCN(C)CC2)cc1`, the “hERG current change (%, negative = inhibition) at 1uM” value came to 13.8%.

With `COc1ccc(C2(c3ccc(OC)cc3)NC(=O)N(CC(=O)Nc3ccc(C(N)=O)cc3)C2=O)cc1`, the “hERG current change (%, negative = inhibition) at 1uM” value is listed as 11.8%.

Consider `CCOC(=O)c1c(NC(=O)COC(=O)c2ccc(C)s2)sc2c1CC(C)(C)NC2(C)C`, for which the “hERG current change (%, negative = inhibition) at 1uM” value is recorded as -9.63%.

`CC(=O)O/N=C(\N)c1ccc(-c2csnn2)cc1`: the “hERG current change (%, negative = inhibition) at 1uM” value worked out at 5.94%.

Regarding `Cc1ccc(F)cc1NC(=O)N1CCCN(c2ccc(C(F)(F)F)cn2)CC1`, the “hERG current change (%, negative = inhibition) at 1uM” value is listed as -2.18%.

In the case of `CCOC(=O)C1CCN(C(=O)c2oc3ccc(S(=O)(=O)N4CCCCCC4)cc3c2C)CC1`, the “hERG current change (%, negative = inhibition) at 1uM” value is 4.05%.

`N/C(=N\OCC(=O)Nc1ccccc1)c1nonc1N`: the “hERG current change (%, negative = inhibition) at 1uM” value amounted to 14.7%.

Consider `Cc1cccc(NC(=O)CS(=O)(=O)c2c[nH]c3ccccc23)c1C`, for which the “hERG current change (%, negative = inhibition) at 1uM” value is 3.94%.

Regarding `C=CCN1C(=O)C(CC(=O)Nc2ccccc2)SC1=Nc1ccc(S(N)(=O)=O)cc1` (stereo not shown), the “hERG current change (%, negative = inhibition) at 1uM” value is on record as 6.76%.

`CSc1nc2ccc(NC(=O)C3CC(=O)N(Cc4ccccc4)C3)cc2s1` (stereo not shown): the “hERG current change (%, negative = inhibition) at 1uM” value is given as 1.69%.

Turning to `Cc1cc(-c2ccccc2)[nH]c(=O)c1S(=O)(=O)c1ccc(Cl)cc1`, the “hERG current change (%, negative = inhibition) at 1uM” value is recorded as 14.9%.

Regarding `Cc1cc(N2CCN(c3ccccc3)CC2)n2ncnc2n1`, the “hERG current change (%, negative = inhibition) at 1uM” value is reported as -7.73%.

As to `Cc1ccccc1C(=O)N1CC(=O)Nc2ccc(F)cc2C1c1ccccc1` (stereo not shown), the “hERG current change (%, negative = inhibition) at 1uM” value stood at 6.24%.

With `CN(C)C(CNC(=O)/C=C/c1cccc(Cl)c1)c1ccccc1` (stereo not shown), the “hERG current change (%, negative = inhibition) at 1uM” value worked out at 2.79%.

In the case of `O=C(CSc1nc(=O)n2cc(Cl)ccc2n1)Nc1ccc2c(c1)OCO2`, the “hERG current change (%, negative = inhibition) at 1uM” value is listed as 17.3%.

Turning to `O=C(COc1coc(CN2CCc3ccccc32)cc1=O)Nc1ccccc1`, the “hERG current change (%, negative = inhibition) at 1uM” value was -3.5%.

With `c1ccc(Cn2c(CN3CCCC3)nc3ccccc32)cc1`, the “hERG current change (%, negative = inhibition) at 1uM” value is recorded as -32.9%.

`COc1cc(/C=N/NC(=O)c2cc(-c3cccn3C)n[nH]2)cc(OC)c1OC`: the “hERG current change (%, negative = inhibition) at 1uM” value is recorded as -8.84%.

Turning to `O=C(c1ccco1)N1CCN(c2ccc(Cl)c(Cl)c2)CC1`, the “hERG current change (%, negative = inhibition) at 1uM” value was -0.211%.

For `Cc1ccc2oc(-c3cccc(NC(=S)NC(=O)/C=C/c4ccco4)c3)nc2c1`, the “hERG current change (%, negative = inhibition) at 1uM” value was found to be 5.35%.

Consider `CC(C)Cn1c(N)c(C(=O)COC(=O)[C@H](C)NC(=O)c2ccccc2Cl)c(=O)n(C)c1=O`, for which the “hERG current change (%, negative = inhibition) at 1uM” value is on record as -8.18%.

Turning to `O=C(c1cccnc1Nc1ccccc1F)N1CCOCC1`, the “hERG current change (%, negative = inhibition) at 1uM” value is on record as 13%.

Regarding `O=S(=O)(Nc1ncccn1)c1ccc(NC(=S)N2CCN(c3cccc(C(F)(F)F)c3)CC2)cc1`, the “hERG current change (%, negative = inhibition) at 1uM” value was found to be 16%.

Regarding `O=C(NCCCn1ccnc1)c1cc(-c2ccccc2)on1`, the “hERG current change (%, negative = inhibition) at 1uM” value is reported as 7.48%.

Take `CCCCN(C)C(=O)C1CCCN(S(=O)(=O)c2ccc3c(c2)oc(=O)n3C)C1` (stereo not shown): the “hERG current change (%, negative = inhibition) at 1uM” value came out at 6.37%.

With `CCCSc1nnc(CSc2nc(C)cc(C)n2)n1C`, the “hERG current change (%, negative = inhibition) at 1uM” value is listed as -0.397%.

On to `COc1cc2c(cc1OC)C1(Nc3c-2c(Cc2ccccc2)nn3-c2ccccc2)C(=O)Nc2ccccc21` (stereo not shown), for which the “hERG current change (%, negative = inhibition) at 1uM” value came out at 12.4%.

On to `Cc1ccc(S(=O)(=O)N2CCOCC2)cc1NC(=O)CN1CCN(c2ccc(O)cc2)CC1`, for which the “hERG current change (%, negative = inhibition) at 1uM” value amounted to 1.62%.

As for `Cc1cccc(/C=C2\CCC(=C3SCCCS3)C2=O)c1`, the “hERG current change (%, negative = inhibition) at 1uM” value came out at 3.23%.

For `O=C(c1coc2ccc(O)cc12)C1CC1`, the “hERG current change (%, negative = inhibition) at 1uM” value turned out to be 3.86%.

For the compound `Cc1cc(NC(=O)C2C3C=CC(C3)C2C(=O)O)no1` (stereo not shown), the “hERG current change (%, negative = inhibition) at 1uM” value is recorded as 4.11%.

Regarding `COc1ccc(-c2csc(NC(=O)CC(C)C)n2)cc1`, the “hERG current change (%, negative = inhibition) at 1uM” value was 11.3%.

For the compound `CC(C)(C)C(=O)O/N=C1/C(=O)N(c2ccccc2)c2ccccc21`, the “hERG current change (%, negative = inhibition) at 1uM” value is listed as 20%.

Take `Cc1ccccc1-n1cc(CNC(=O)C2CCC(=O)N(C3CC3)C2)cn1` (stereo not shown): the “hERG current change (%, negative = inhibition) at 1uM” value came out at 18.5%.

On to `O=C(NCc1ccc2c(c1)OCO2)C(=O)NCC1OCCN1S(=O)(=O)c1ccc(Br)cc1` (stereo not shown), for which the “hERG current change (%, negative = inhibition) at 1uM” value was -5.06%.

Turning to `CC(NC(=O)/C(C#N)=C/c1ccc([N+](=O)[O-])o1)c1ccccc1` (stereo not shown), the “hERG current change (%, negative = inhibition) at 1uM” value turned out to be 13.7%.

As to `O=C1NCCc2c1[nH]c1ccc([N+](=O)[O-])cc21`, the “hERG current change (%, negative = inhibition) at 1uM” value is reported as -3.42%.

With `Cc1ccc(S(=O)(=O)N2CCN(c3ccccn3)CC2)cc1`, the “hERG current change (%, negative = inhibition) at 1uM” value was 10.8%.

As for `COc1ccc(S(=O)(=O)NCC(=O)N(CC(=O)NCC2CCCO2)c2c(C)cccc2C)cc1` (stereo not shown), the “hERG current change (%, negative = inhibition) at 1uM” value amounted to 2.6%.

Take `O=[N+]([O-])c1ccc(Nc2ccc(F)cc2)cc1`: the “hERG current change (%, negative = inhibition) at 1uM” value is given as 11.4%.

For the compound `Nc1cccnc1-n1nc(C(F)(F)F)cc1C(F)(F)F`, the “hERG current change (%, negative = inhibition) at 1uM” value came out at 10.2%.

With `CC(=O)OCc1nc2sc(C)c(C)c2c(=O)[nH]1`, the “hERG current change (%, negative = inhibition) at 1uM” value is listed as 9.88%.

Consider `CN(C)c1cccc(C(=O)NCCCSc2ccccc2)c1`, for which the “hERG current change (%, negative = inhibition) at 1uM” value amounted to 9.45%.

Take `CC1Sc2ccc(S(=O)(=O)N3CCC(C(=O)NCc4ccccc4)CC3)cc2NC1=O` (stereo not shown): the “hERG current change (%, negative = inhibition) at 1uM” value came out at 14.8%.

As for `CC(=O)NC(=O)c1nnn(Cc2ccccc2)c1NC(C)=O`, the “hERG current change (%, negative = inhibition) at 1uM” value is -6.28%.

Consider `CC(=O)OCCC(NS(=O)(=O)OCC(Cl)(Cl)Cl)c1ccccc1` (stereo not shown), for which the “hERG current change (%, negative = inhibition) at 1uM” value turned out to be 7.28%.

With `Cc1cc2nc(Cl)c(Cl)nc2cc1C`, the “hERG current change (%, negative = inhibition) at 1uM” value worked out at 5.62%.

For the origin of these results see paper PMC4336329 (PLoS ONE, 2015).
